# In the supplement of paper PMC10037445:
# In all, about 2,900 compounds were measured (“NF-kB SEAP reporter activity, fold change vs agonist alone”: median about 0.99, highest 2% from about 2.6 on). This is one part of the list.
# Columns and labels:
# [1] = system: RAW-Dual; assay: NF-kB SEAP reporter activity, fold change vs agonist alone; cytotoxicity flag (confluency mask): not cytotoxic; higher = enhanced NF-kB activity
# Procedure, shortened: (§1)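 RAW-Dual macrophages were seeded in DMEM at 50,000 cells/well in 384-well plates, given 50 nL of library stock by pin tool, and given a PRR agonist 1 h later. Plates were held at 37 °C, 5% CO2 for 20 hours, after which supernatant was read for IRF by QuantiLuc luminescence and for NF-κB by QuantiBlue absorbance at 620 nm. Reporter activity is expressed as fold change over wells that received agonist alone. A well was called cytotoxic when IncuCyte confluency fell below 70% of agonist controls in both mask sets.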
# [2] = system: RAW-Dual; assay: NF-kB SEAP reporter activity, fold change vs agonist alone; higher = enhanced NF-kB activity; details: library stock concentration (final ~1000-fold dilution): 10 mM, cytotoxicity flag (confluency mask): not cytotoxic
# Procedure, shortened: as §1
# [3] = agonist: ODN 1826 (TLR9) 0.5 ug/mL
# [4] = agonist: Pam2CSK4 (TLR2/6) 0.1 ug/mL
# [5] = agonist: Pam3CSK4 (TLR2/1) 0.1 ug/mL
SMILES,NF-kB SEAP reporter activity ([1]; agonist: LPS (TLR4) 0.1 ug/mL),"NF-kB SEAP reporter activity [1, 3]","NF-kB SEAP reporter activity [1, 4]","NF-kB SEAP reporter activity [1, 5]",NF-kB SEAP reporter activity ([2]; agonist: Imiquimod (TLR7) […]),NF-kB SEAP reporter activity ([2]; agonist: MPLA (TLR4) […])
CCCNC(C)C(=O)Nc1ccccc1C.Cl (stereo unspecified) (library stock concentration (final ~1000-fold dilution): 10 mM),0.972,0.957,1,0.889,,
NC(=O)C(CCC(F)(F)F)N(Cc1ccc(-c2ncon2)cc1F)S(=O)(=O)c1ccc(Cl)cc1 (stereo unspecified),,,,,0.84,0.946
NC(=O)C(CCC(F)(F)F)N(Cc1ccc(-c2ncon2)cc1F)S(=O)(=O)c1ccc(Cl)cc1 (stereo unspecified) (library stock concentration (final ~1000-fold dilution): 10 mM),0.935,0.808,0.675,0.682,,
C=C1CCC(O)C/C1=C/C=C1\CCCC2(C)C1CCC2C(C)/C=C/C(C)C(C)C (stereo unspecified) (library stock concentration (final ~1000-fold dilution): 10 mM),0.764,0.771,0.767,0.764,,
C=C1CCC(O)C/C1=C/C=C1\CCCC2(C)C1CCC2C(C)/C=C/C(C)C(C)C (stereo unspecified),,,,,0.745,0.857
CN(C)C(=O)c1cc2cnc(Nc3ccc(N4CCNCC4)cn3)nc2n1C1CCCC1,,,,,1.11,1.11
CN(C)C(=O)c1cc2cnc(Nc3ccc(N4CCNCC4)cn3)nc2n1C1CCCC1 (library stock concentration (final ~1000-fold dilution): 10 mM),0.908,0.825,1.24,1.75,,
C=CC(C)(O)CCC=C(C)C (stereo unspecified),,,,,,1.14
C=CC(C)(O)CCC=C(C)C (stereo unspecified) (library stock concentration (final ~1000-fold dilution): 10 mM),1.16,0.952,1.14,0.916,,
CC(C)CC(NC(=O)CNC(=O)c1cc(Cl)ccc1Cl)B1OC(=O)CC(CC(=O)O)(C(=O)O)O1 (stereo unspecified) (library stock concentration (final ~1000-fold dilution): 10 mM),0.585,0.938,0.905,0.999,,
CC(C)CC(NC(=O)CNC(=O)c1cc(Cl)ccc1Cl)B1OC(=O)CC(CC(=O)O)(C(=O)O)O1 (stereo unspecified),,,,,0.956,0.913
CN1CCN(c2ccc(Nc3cc(-c4cccc(-n5ccc6cc(C7CC7)cc(F)c6c5=O)c4CO)cn(C)c3=O)nc2)CC1,,,,,0.817,0.979
CN1CCN(c2ccc(Nc3cc(-c4cccc(-n5ccc6cc(C7CC7)cc(F)c6c5=O)c4CO)cn(C)c3=O)nc2)CC1 (library stock concentration (final ~1000-fold dilution): 10 mM),2.24,0.361,0.97,1.13,,
Cc1cc(Nc2cc(CN3CCOCC3)c3nc(C)c(Cc4ccc(Cl)cc4F)n3n2)[nH]n1,,,,,0.954,0.944
Cc1cc(Nc2cc(CN3CCOCC3)c3nc(C)c(Cc4ccc(Cl)cc4F)n3n2)[nH]n1 (library stock concentration (final ~1000-fold dilution): 10 mM),1.17,0.972,0.725,0.99,,
CN(CC1COCCO1)S(=O)(=O)Nc1ccc2ccc3ncc(-c4cnn(C)c4)cc3c(=O)c2c1 (stereo unspecified),,,,,1.63,1.88
CN(CC1COCCO1)S(=O)(=O)Nc1ccc2ccc3ncc(-c4cnn(C)c4)cc3c(=O)c2c1 (stereo unspecified) (library stock concentration (final ~1000-fold dilution): 10 mM),2.25,1.06,0.543,0.611,,
